# Experimental data: PubChem BioAssay AID624417 (National Center for Advancing Translational Sciences (NCATS), 2012)
# About 6,400 (1.6%) of roughly 410,000 compounds were called active. Inconclusive means that the source gave no clear call. Such entries were picked first, then a sample of the others. Calls come from the whole dose curve; as a rule, active = well fitted inhibition curve with a large enough effect; inconclusive = small, poorly fitted or top-dose-only effect; inactive = no such curve, though single readings can be large or run the other way. Potencies of inconclusive entries are left out as doubtful fits.
# Molecular target: Glucagon-like peptide 1 receptor (Homo sapiens) (UniProt P43220)
# Assay: qHTS of GLP-1 Receptor Inverse Agonists (Inhibition Mode); note: nearly all actives have a fitted effect of over 55% in size
# Conditions: HEK293 GLP-1R CRE-luciferase, luminescence, 24 h, GLP-1R form is constitutively active; activity change, negative = inhibition: at 38.3 µM (top of the series) unless noted
# Summary of the method: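 Readout was luciferase luminescence, measured 12 min after detection reagent at room temperature. Beforehand, GLP-1R reporter HEK293 cells had sat 12 h, then received compounds for 24 hr at 37 deg C.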
# % is set by controls: 0 for no effect and ±100 for the full control effect; potency is the fitted concentration of half-maximal effect; tags give direction and shape of the fitted curve.
# Sequence of UniProt P43220 (P43220 whole entry, looked up): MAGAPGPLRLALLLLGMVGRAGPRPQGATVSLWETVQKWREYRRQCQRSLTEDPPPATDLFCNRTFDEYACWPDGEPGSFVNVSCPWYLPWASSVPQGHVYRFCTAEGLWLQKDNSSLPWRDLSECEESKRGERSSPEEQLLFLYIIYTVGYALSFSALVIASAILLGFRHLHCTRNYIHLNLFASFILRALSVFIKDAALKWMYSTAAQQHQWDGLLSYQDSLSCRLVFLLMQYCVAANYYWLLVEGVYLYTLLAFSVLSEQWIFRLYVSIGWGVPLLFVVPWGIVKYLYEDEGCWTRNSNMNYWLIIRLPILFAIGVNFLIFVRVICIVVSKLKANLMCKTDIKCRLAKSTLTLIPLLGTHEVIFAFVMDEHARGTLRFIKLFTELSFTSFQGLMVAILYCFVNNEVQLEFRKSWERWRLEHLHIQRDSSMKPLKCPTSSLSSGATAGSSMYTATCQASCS
Compound,Potency,"activity change, negative = inhibition"
COc1ccccc1C(=O)NNC(=O)c1ccccc1F,"inconclusive [inhibitor, single point]",
Cc1nn(-c2ccccc2)c(N2CCCC2)c1/C=N/NC(=O)c1cc(-c2ccccc2)nc2ccccc12,"inconclusive [inhibitor, single point]",
O=C(NC(=S)Nc1ccc(NC(=O)c2cccs2)cc1)c1ccco1,"inconclusive [inhibitor, single point]",
CCOC(=O)C(Cc1ccccc1)NC(=O)Cn1nnc(-c2ccc(SC)cc2)n1 (stereo unspecified),"inconclusive [inhibitor, partial curve]",
O=S(=O)(NCc1ccc(F)cc1)c1ccc2[nH]c3c(c2c1)CCCC3,"inconclusive [inhibitor, single point]",
C/C(CC(=O)Nc1cc(C)ccn1)=N\NC(=O)c1ccccc1C,"inconclusive [inhibitor, single point]",
Cc1ccc(NC(=O)CN(C)C(=O)c2cc(-c3cccs3)nn2-c2ccccc2)cc1,active: 7.94 µM,
CC(=O)c1ccc(NC(=O)c2ccc3nc(-c4ccco4)c(-c4ccco4)nc3c2)cc1,"inconclusive [inhibitor, single point]",
CCN1CCN(c2ccc(S(=O)(=O)N3CCCCC3)cc2NC(=O)c2cccc(Cl)c2)CC1,"inconclusive [inhibitor, single point]",
Cc1cc(OCC(=O)Nc2ccccc2N2CCOCC2)c(C(C)C)cc1Cl,"inconclusive [inhibitor, single point]",
COC(=O)C1(CC2CC(c3cccc(Br)c3)=NO2)CCN(C(=O)OC(C)(C)C)CC1 (stereo unspecified),"inconclusive [inhibitor, partial curve, poor fit]",
Cc1cc(C)cc(OCC(=O)NCc2cc(C)nc3ccccc23)c1,"inconclusive [inhibitor, partial curve]",
O=C(NCc1ccccc1)c1nc2c(nnn2Cc2cccc(Cl)c2)c(=O)[nH]1,"inconclusive [inhibitor, single point]",
CCc1ccc2c(c1)NC(=O)C2(C)Cc1ccc(F)cc1 (stereo unspecified),"inconclusive [inhibitor, partial curve]",
CCNC(=S)N/N=C/c1ccc(C#N)cc1,"inconclusive [inhibitor, single point]",
O=C(NCc1ccco1)C1c2ccccc2Oc2ccccc21,"inconclusive [inhibitor, single point]",
CN(C)c1ccc(P(=O)(CC(=O)N/N=C/c2ccc(C#N)cc2)OCCCl)cc1 (stereo unspecified),,inactive: 12.8%
O=C(CSc1nnc(-c2ccncc2)o1)Oc1ccccc1,"inconclusive [inhibitor, partial curve, poor fit]",
Cc1ccc(NC(=O)C2CC(=O)N(c3ccc4c(c3)OCCO4)C2)cc1S(=O)(=O)N1CCCCCC1 (stereo unspecified),"inconclusive [inhibitor, single point]",
CCCCn1cnc2c(c(-c3ccccc3)c(-c3ccccc3)n2Cc2ccco2)c1=N,"inconclusive [inhibitor, single point]",
COc1cc(OC)cc(C(=O)NC(C)CCc2ccccc2)c1 (stereo unspecified),"inconclusive [inhibitor, single point]",

Compound,Potency,"activity change, negative = inhibition"
CC(=O)c1cccc(NC(=S)Nc2cccc3ccccc23)c1,"inconclusive [inhibitor, single point]",
N#Cc1c(N2CCN(C(=O)c3ccccc3)CC2)nc(-c2ccccc2)c2c1CCCC2,"inconclusive [inhibitor, partial curve, poor fit]",
Cc1cc(-c2csc3nc[nH]c(=S)c23)cc(C)c1C,"inconclusive [inhibitor, partial curve, poor fit]",
CCOc1ccccc1NC(=S)N1CCN(c2nc(-c3cccc(OC)c3)cs2)CC1,"inconclusive [inhibitor, single point]",
Cc1cc(C(=O)OCC(=O)N2CC(=O)Nc3ccccc32)c(C)n1-c1ccc(F)cc1,"inconclusive [inhibitor, single point]",
COc1ccc(-c2nn(-c3ccccc3)cc2C(=O)Nc2nccs2)cc1OC,"inconclusive [inhibitor, single point]",
CC1CCN(Cc2cc(=O)oc3ccc(C(C)C)cc23)CC1,"inconclusive [inhibitor, single point]",
COC(=O)C1=CN(c2ccc(F)cc2)C=C(C(=O)OC)C1c1ccc([N+](=O)[O-])cc1,"inconclusive [inhibitor, partial curve, poor fit]",
COc1ccc(Nc2nc(N)nc(CCl)n2)cc1,"inconclusive [inhibitor, single point]",
O=C(CSCCO)Nc1cccc(C(F)(F)F)c1,"inconclusive [inhibitor, full curve, poor fit]",
CCOC(=O)c1[nH]c2ccc(Br)cc2c1NC(=O)CCN1CCN(C(=O)OCC)CC1,"inconclusive [inhibitor, single point]",
CC(=O)c1ccc(NC(=S)Nc2cccc3ccccc23)cc1,"inconclusive [inhibitor, partial curve, poor fit]",
CCOC1=C2CN(S(=O)(=O)c3ccc(C)cc3)[C@H](c3ccccc3)C[C@@H]2N(S(=O)(=O)c2ccc(C)cc2)[C@H](c2cccc(C)c2)C1,,inactive: 22.2%
Cc1ccc(C(C)C)c(OCc2nn(CC(=O)c3ccc(Cl)cc3)c3[n+]2CCCCC3)c1,"inconclusive [inhibitor, single point]",
CC(C)NS(=O)(=O)c1ccc(Oc2ncc(C(F)(F)F)cc2Cl)cc1,"inconclusive [inhibitor, single point]",
CCOC(=O)N1CCc2cc(OC)c(OC)c3c2c1cc1cc(OC)c(OC)cc13,,inactive: 3.09%
CCOC(=O)c1c(NC(=O)C2(C)Cc3ccccc3C(=O)O2)sc2c1CCCC2 (stereo unspecified),"inconclusive [inhibitor, partial curve]",
CCOC(=O)c1cc(OC(=O)c2cc(OC)cc(OC)c2)n(-c2ccccc2)n1,,inactive: 0.895%
CC(=O)c1ccc(C(=O)N(CCN(C)C)c2nc3c(Cl)cccc3s2)cc1,"inconclusive [inhibitor, single point]",
Cc1ccc(C(=O)Cn2nnc(-c3cccs3)n2)cc1,"inconclusive [inhibitor, single point]",
CC1(C)CC(=O)c2sc(NC(=O)CCS(=O)(=O)c3ccccc3)nc2C1,,inactive: -28.6%

Compound,Potency,"activity change, negative = inhibition"
CN(CCc1ccccc1)C(=O)c1cc(COc2ccc(F)cc2Cl)on1,"inconclusive [inhibitor, partial curve, poor fit]",
COCCNC(=S)N/N=C/c1ccc(N2CCOCC2)cc1,"inconclusive [inhibitor, single point]",
CCOC(=O)c1c(NC(=O)CSc2cn(CCNC(=O)c3ccc(OCC)cc3)c3ccccc23)sc2c1CCC2,"inconclusive [inhibitor, full curve]",
CCCCOC(=O)Cn1c(=O)c2c(nc3n2CCCCN3c2ccc(C)cc2)n(C)c1=O,"inconclusive [inhibitor, partial curve, poor fit]",
O=C(NCc1ccccc1)c1nc(-c2ccc(Cl)cc2)n2c1CCCCC2,"inconclusive [inhibitor, single point]",
COc1ccc2cc(C(=O)C3CCCN(C(=O)c4snnc4C)C3)ccc2c1 (stereo unspecified),"inconclusive [inhibitor, partial curve, poor fit]",
O=C1NC[C@H](CCCCN2C[C@H](Cc3ccc(O)cc3)N(Cc3ccccc3)C(=O)C2=O)N(CC2CCCCC2)C1=O,,inactive: 13.2%
C/C(=N/Nc1nc(C)cc(C)n1)c1ccc(Br)cc1,"inconclusive [inhibitor, partial curve, poor fit]",
Cc1cccc(NC(=O)NNC(=O)c2cc(-c3ccccc3Cl)nc3ccccc23)c1,"inconclusive [inhibitor, partial curve, poor fit]",
O=C(CC(c1ccccc1)c1ccccc1O)NCCc1ccccc1 (stereo unspecified),"inconclusive [inhibitor, single point]",
C/C(Cn1cnc([N+](=O)[O-])n1)=N\NC(=O)c1ccc(Br)cc1,,inactive: 2.96%
C/C(=N\NC(=O)C1(C)CC1(Br)Br)c1ccc(C)cc1C (stereo unspecified),"inconclusive [inhibitor, single point]",
CCOC(=O)/C(C(=Nc1ccccc1)Nc1ccccc1)=C(\C)O,"inconclusive [inhibitor, partial curve, poor fit]",
O=C(CSc1nc(C(F)(F)F)cc(=O)[nH]1)N1CCC(Cc2ccccc2)CC1,"inconclusive [inhibitor, full curve, poor fit]",
CC(=O)OC1CC2(C)C(CCC2(O)C(C)=O)C2CCC3C(Cl)C(=O)CCC3(C)C12 (stereo unspecified),"inconclusive [inhibitor, single point]",
N#CC1=C(N)Oc2cc(N)ccc2C1c1ccc(F)cc1 (stereo unspecified),"inconclusive [inhibitor, partial curve]",
O=C(CNc1ccccc1F)Nc1cc(S(=O)(=O)N2CCCCC2)ccc1Cl,"inconclusive [inhibitor, partial curve, poor fit]",
CCCOc1ccccc1NC(=O)/C=C/c1ccc(OC)c(S(=O)(=O)N2CCOCC2)c1,,inactive: 2.08%
CC(C)(C)N(CC#CCC1(O)c2ccccc2-c2ccccc21)CCO,"inconclusive [inhibitor, partial curve, poor fit]",
